# Experimental data taken from PMC11995724, “Antibiotic target discovery by integrated phenotypic and activity-based profiling of electrophilic fragments” (Cell chemical biology, 2025).
# About 110 (3.4%) of roughly 3,200 compounds showed an effect of 50% or more. Some of the results follow.
# Test system: T1, V. cholerae SAD30
# T1 construct: SAD30
# Design: species or system S. aureus MSSA476 (TSB) or V. cholerae SAD30 (LB); 384-well bacterial growth screen at 25 uM, OD600 relative to DMSO control
# Details: relative growth, OD600, LB; 25 µM; inhibitor
row,SMILES,% of control remaining
1,"COc1ccc(N(C(=O)CCl)C2C=CS(=O)(=O)C2)cc1 (stereo not drawn) [5-H14, 2-chloro-N-(1,1-dioxo-2,3-dihydro-1lambda6-thiophen-3-yl)-N-(4-methoxyphenyl)acetamide]",97.1735%
2,"Cc1ccccc1NC(=O)C(C#N)=Cc1cccnc1 [8-D10, 2-cyano-N-(2-methylphenyl)-3-(pyridin-3-yl)prop-2-enamide]",73.8953%
3,"O=C1C=CC(=O)N1c1ccc(SC(F)F)cc1 [10-A18, 1-{4-[(difluoromethyl)sulfanyl]phenyl}-2,5-dihydro-1H-pyrrole-2,5-dione]",28.9889%
4,"CCc1nc2cc(CNC(=O)C(C)Cl)ccc2n1C1CC1 (stereo not drawn) [6-N09, 2-chloro-N-[(1-cyclopropyl-2-ethyl-1H-1,3-benzodiazol-5-yl)methyl]propanamide]",87.5154%
5,"O=C(CCl)N1N=C(c2cccs2)CC1c1ccccc1O (stereo not drawn) [4-K20, 2-chloro-1-[5-(2-hydroxyphenyl)-3-(thiophen-2-yl)-4,5-dihydro-1H-pyrazol-1-yl]ethan-1-one]",107.138%
6,"CC(Cl)C(=O)NC(C)c1nc(-c2cccnc2)cs1 (stereo not drawn) [6-P07, 2-chloro-N-{1-[4-(pyridin-3-yl)-1,3-thiazol-2-yl]ethyl}propanamide]",94.0373%
7,"N#CC(=Cc1cccc(O)c1)C(=O)Nc1ccccc1C(=O)O [9-O16, 2-[2-cyano-3-(3-hydroxyphenyl)prop-2-enamido]benzoic acid]",86.1319%
8,"CCc1cc(SC#N)cc(C)c1NC(=O)CCl [4-M04, 2-chloro-N-[4-(cyanosulfanyl)-2-ethyl-6-methylphenyl]acetamide]",101.445%
9,"CC(O)=C(C#N)C(=O)Nc1ccc(-c2ccccc2Cl)c(Cl)c1 [9-L22, 2-cyano-N-{2,2'-dichloro-[1,1'-biphenyl]-4-yl}-3-hydroxybut-2-enamide]",79.0619%
10,"C=CC(=O)Nc1ccc(C(=O)N(C)C[C@@H]2CCC(=O)N2)cc1 [2-L18, N-methyl-N-{[(2S)-5-oxopyrrolidin-2-yl]methyl}-4-(prop-2-enamido)benzamide]",92.6662%
11,"N#CC(=Cc1cccc(F)c1)C(=O)NCc1ccccc1 [9-K09, N-benzyl-2-cyano-3-(3-fluorophenyl)prop-2-enamide]",81.9171%
12,"C=CC(=O)N1CCC(C(=O)NCc2nccn2-c2ccccc2)CC1 [3-B03, N-[(1-phenyl-1H-imidazol-2-yl)methyl]-1-(prop-2-enoyl)piperidine-4-carboxamide]",117.85%
